Target: mouse ZNG1, full length, tag-free (mouse, UniProt Q8VEH6)
Assay: SEC

Sequence of UniProt Q8VEH6 (Q8VEH6 whole entry): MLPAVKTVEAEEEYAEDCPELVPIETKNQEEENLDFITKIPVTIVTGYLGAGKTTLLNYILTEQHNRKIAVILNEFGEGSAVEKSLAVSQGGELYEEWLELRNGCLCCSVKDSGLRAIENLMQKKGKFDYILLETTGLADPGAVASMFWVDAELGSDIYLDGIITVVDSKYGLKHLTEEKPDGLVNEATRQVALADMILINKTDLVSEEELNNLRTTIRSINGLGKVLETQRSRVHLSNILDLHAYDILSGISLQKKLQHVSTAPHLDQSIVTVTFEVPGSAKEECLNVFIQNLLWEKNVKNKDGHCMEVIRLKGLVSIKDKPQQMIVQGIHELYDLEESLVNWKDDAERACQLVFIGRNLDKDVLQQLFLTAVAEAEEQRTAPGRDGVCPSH

- binding result: binds
B1: mouse METAP1([…]) (domain or fragment)
chain: not shown
